# In the supplement of paper PMC4466236:
# Whole data set: some 33,000 sequences, median “E-score (dimensionless, -0.5 to 0.5)” near -0.058, cut for the highest 2% near 0.35. This is one part of the list.
# System: MvaT
# Test: PBM 8-mer E-score (mean of HK and ME arrays) (E-score (dimensionless, -0.5 to 0.5)); higher = stronger relative binding preference; most listed sequences are background and not binding sites
# Description: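 Protein binding microarray: GST-tagged full-length MvaT (P. aeruginosa PAO1) bound to two universal double-stranded 60-mer arrays (ME and HK), each with a constant 25-mer primer and a variable 35-mer region covering all 8-mers. The 8-mer E-score (rank-based, range -0.5 to 0.5, >0.45 = specific binding) is the mean of the two arrays.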
row,Sequence,PBM 8-mer E-score
1,GAATCTTA,0.0997
2,ATAAGTGC,0.178
3,GTCTTACA,0.0145
4,ACAGCTTC,-0.159
5,GTGGCTGA,-0.0813
6,GTAGGGAA,0.0135
7,AGCGACCA,-0.13
8,CTCTGAAA,0.0466
9,ATTAAGCC,0.138
10,CCGCCGAC,-0.206
11,GCAAATGC,-0.0563
12,ATCGAATC,-0.0636
13,AATTAGGT,0.318
14,CGGACGTA,0.00838
15,CGTTAGTC,0.0653
16,ATCTCCCG,-0.209
17,ACTAGGAA,0.0464
18,AAACGCGG,-0.0874
19,ATGGCTAA,0.0518
20,ATAGCTAA,0.0897
21,CTCTACAG,-0.15
22,CAGTTCTA,0.0495
23,AAGATTCT,-0.0458
24,GGATGTAC,-0.0457
25,GTTCACGA,-0.0812

row,Sequence,PBM 8-mer E-score
1,GCATTCGC,0.00449
2,AATGATCA,0.115
3,AACGGTAC,-0.0245
4,CTACTTTA,0.267
5,CTCGTGTC,-0.16
6,TGAGTCAA,0.00432
7,AGCCAGCA,-0.152
8,GCCTCAGC,-0.362
9,AATTATGC,0.34
10,CATCTATA,0.213
11,CCGCCCGG,-0.371
12,GAGCAGTA,0.0741
13,GTGTCAAA,0.146
14,AAAGGCCG,-0.128
15,ACGAGACA,-0.114
16,ATACTTGG,0.124
17,GGGGAGTA,-0.087
18,AATGGGTG,0.0651
19,ATCTATGG,-0.0291
20,CATTCCCG,0.00248
21,ACTGTTCT,0.017
22,CATTAACC,0.183
23,ATCAGTCG,-0.0941
24,CCTACGTC,-0.192
25,ATGAATTA,0.295

row,Sequence,PBM 8-mer E-score
1,AAAACCAA,0.171
2,ATTCACTC,-0.0267
3,GACAAAAA,0.146
4,CGTTGCGC,-0.0717
5,GAATACAA,0.279
6,AGCGAAAT,0.0731
7,GCGAAAGA,-0.0739
8,ACGCCCTC,-0.263
9,ATTGGCTC,-0.208
10,CGAAGGTC,-0.298
11,ATCGGGGG,-0.333
12,AATTTAAG,0.271
13,AATTCCAG,0.127
14,CATCCTCA,-0.183
15,CAGTGATA,-0.0191
16,GTACGGGA,-0.0499
17,AATCTCAC,0.0724
18,ACATGTCC,-0.0815
19,AAAAGCTT,0.174
20,CAGTACAA,0.142
21,AAGAGAGA,-0.233
22,GCCGGTAC,-0.198
23,GTATACAA,0.319
24,GCGCATCC,-0.285
25,CCATTGGG,-0.289

row,Sequence,PBM 8-mer E-score
1,GGCAGTAC,-0.0151
2,ATTTCAAG,0.163
3,CACCCCAC,-0.154
4,CGTTGTTA,0.127
5,GAGGCGCC,-0.302
6,CGAGTACG,-0.0687
7,CAACTACG,0.0764
8,TAGGAAGA,0.048
9,AGTGTTGG,0.00492
10,AAATATCG,0.295
11,CGCTGGGA,-0.245
12,ACCATCCT,-0.0607
13,ACCAAGGT,-0.219
14,TCTGTAAA,-0.0295
15,CCTACTTA,0.251
16,ACAGACAA,0.189
17,GCTGGCCA,-0.299
18,ATCTACAG,0.0162
19,CAATGTGA,0.0419
20,GAGCTCAC,-0.217
21,AGACGGGC,-0.0986
22,AAGTCTCT,0.0309
23,ACGGATTC,-0.0331
24,TATGCGGA,-0.058
25,CAGGGACA,-0.188

row,Sequence,PBM 8-mer E-score
1,GTATTTCA,0.223
2,AGCTCGGA,-0.141
3,CGCACGCA,0.00173
4,TCACTCGA,-0.168
5,CGAATAAA,0.254
6,CGAGGCAA,-0.0751
7,AGCCTTGA,-0.171
8,AGGCACAG,-0.27
9,ATCGGTAA,-3.6e-06
10,CAGACACA,-0.0655
11,AGTTGCTA,0.0718
12,CTAGGGTC,-0.226
13,CACGGGCG,-0.238
14,GTCTCCTA,-0.118
15,CTGAGGCC,-0.298
16,TGCTAGAA,0.0627
17,ACAAAGAA,0.183
18,GAATAAGC,0.194
19,GATCGGAA,-0.104
20,ATTAACTG,0.283
21,GATAATGC,0.151
22,CAAACCCC,-0.173
23,CGTGACGC,-0.189
24,AATCAGCT,-0.0849
25,AACAGCGT,-0.0539

row,Sequence,PBM 8-mer E-score
1,CTGCTAAG,-0.265
2,GAATAGAA,0.105
3,AGACCGAA,-0.101
4,ACGTACGG,-0.0797
5,ACGCATGG,-0.16
6,GATATCGC,0.137
7,AAGGCAGT,0.0784
8,AAGGCATA,-0.0792
9,GTGGGTCA,-0.165
10,AAGCCGTA,-0.103
11,ATACAAAG,0.27
12,ACTTACCG,0.0362
13,CACCTGTA,-0.0465
14,GGAGGCAC,-0.281
15,AACTCGCC,-0.087
16,ACTAGACC,-0.0407
17,ATCGGTGC,-0.128
18,AATCATTC,0.136
19,ACACAACG,-0.0104
20,ATCGCTAA,0.0876
21,GCACACGA,-0.0821
22,CGAGGGCA,-0.294
23,AGTGTAGA,0.0718
24,TAGATCTA,0.135
25,ATATCAAA,0.244

row,Sequence,PBM 8-mer E-score
1,AGCCGTTC,-0.187
2,CGCAAGCG,-0.206
3,GGTCGGAC,-0.14
4,TACCCCTA,-0.113
5,CAACACAC,0.0459
6,AAGTCGTC,0.00428
7,CTGCATTC,-0.112
8,AACTGGGA,-0.216
9,GCTACCCA,-0.19
10,AAAAAGGG,0.0202
11,AGGGAAAA,0.0358
12,AGAGGGTC,-0.31
13,GACAGAGC,-0.264
14,GGATACGA,0.0766
15,ATAAGCCC,-0.0318
16,ATGATAAA,0.278
17,ATATACGG,0.194
18,CCCCAAAA,-0.131
19,CATCTAGG,-0.0824
20,CTTCGTAA,-0.0661
21,CCTAATAA,0.266
22,AAAACCCA,0.138
